Source: PubChem BioAssay AID463173 (ICCB-Longwood Screening Facility, Harvard Medical School, 2010)
Screen size: about 52,000 compounds; about 4,300 (8.3%) were called active. No stated cut-off is given here; in the data, active means survival mostly below about 52% (no sharp cut-off); inactive means mostly above about 56%. The list shows a part of the results.

What follows are compounds tested on DeltatarO mutant (assay: S. aureus survival, RN4220 and DeltatarO strains – OD600, teichoic acid synthesis inhibitors, primary screen (AID 463173)). Settings: S. aureus RN4220 wild type/DeltatarO growth, OD600, 18 h, hits give low values, screened at 18.75 µg/mL (by protocol).

Which survival does the source give for `COc1cccc2sc(N(Cc3cccnc3)C(=O)COc3ccccc3)nc12` here?
Its survival is inactive: 62%.

`Cc1nn(-c2ccccc2)c(OC(=O)c2ccccc2F)c1S(=O)(=O)c1ccccc1` was tested. Which survival did it give?
Its survival is inactive: 89%.

For `CCC1CN(S(=O)(=O)c2cc(-c3cc(C)no3)ccc2OC)c2cc(C)ccc2O1` (centres undefined), which survival is on record?
The survival was inactive: 109%.

`O=C(O)CN1C(=O)c2ccc(Br)cc2C1=O` was tested. Which survival did it give?
The survival was inactive: 102%.

Which survival does the source give for `COc1ccc(OC)c(CNC(=O)C2CCN(S(=O)(=O)c3cn(C)cn3)CC2)c1` here?
Its survival is inactive: 83%.

Which survival does the source give for `COc1cc(Cl)c(C)cc1NC(=O)c1cc(CN2CCOCC2)on1` here?
The survival was inactive: 65%.

With `CN(C(=O)COc1ccccc1)c1nc(-c2ccccc2)cs1` as the compound, how does the survival read?
The survival was inactive: 80%.

How did the survival turn out when `CCN=C1SC(C(=O)Nc2ccc(Br)cc2)CC(=O)N1CC` (centres undefined) was run?
The survival was inactive: 85%.

How did the survival turn out when `Cc1cc(NC(=O)c2ccc3c(c2)N(Cc2cccc(Cl)c2)C(=O)c2ccccc2S3=O)ccc1Br` (centres undefined) was run?
The survival was inactive: 87%.

With `CCc1ccccc1NC(=O)Nc1cc(C(=O)NCc2ccc(C(C)C)cc2)ccc1N1CCCC1` as the compound, how does the survival read?
The survival was inactive: 135%.

Which survival does the source give for `CC1CCCN(Cc2c(O)ccc3c(=O)c(Oc4ccccc4Cl)c(C(F)(F)F)oc23)C1` (centres undefined) here?
Its survival is inactive: 88%.

`Cc1ccc(S(=O)(=O)c2cn(Cc3ccccc3F)c3cc4c(cc3c2=O)OCO4)cc1` was tested. Which survival did it give?
The survival was inactive: 88%.

With `CCc1ccc(Oc2nc3c(C)cccn3c(=O)c2/C=C(\C#N)c2nc3ccccc3[nH]2)cc1` as the compound, how does the survival read?
The survival was inactive: 81%.

For `Cc1cccc(C(=O)NCC(c2ccc3c(c2)OCO3)N2CCN(c3ccccc3F)CC2)c1` (centres undefined), which survival is on record?
Its survival is inactive: 71%.

How did the survival turn out when `COc1cc(-c2noc(CSc3nc(-c4ccccc4)cc(=O)[nH]3)n2)cc(OC)c1OC` was run?
The survival was inactive: 75%.

For `COc1ccc(NC(=O)c2sc3nc4c(cc3c2N)CN(C(C)C)CC4)c(OC)c1`, which survival is on record?
The survival was inactive: 63%.

`Cc1cc(=O)n2[nH]c(NCc3ccc(F)cc3)nc2n1` was tested. Which survival did it give?
Its survival is inactive: 102%.

Which survival does the source give for `COc1ccc(S(=O)(=O)c2c(Nc3ccc(C)cc3)sc(C(=O)c3ccc(C)cc3)c2N)cc1` here?
The survival was inactive: 105%.

For `Cc1ccc(-n2nc(C)c3c(C)cc(=O)n(CC(=O)Nc4ccc(Br)cc4F)c32)cc1`, which survival is on record?
Its survival is inactive: 116%.

`COc1ccc(-c2ccc(CNc3ccc4[nH]c(=O)[nH]c4c3)o2)cc1Cl` was tested. Which survival did it give?
The survival was inactive: 55%.

Which survival does the source give for `Cc1nn(CC(=O)NC2CCCCC2)c(=O)c2cc3cc(F)ccc3n12` here?
Its survival is inactive: 93%.

For `Cc1ccc(CSCC(=O)NCc2ccc(F)cc2)cc1`, which survival is on record?
The survival was inactive: 92%.

Which survival does the source give for `CCOc1ccccc1Nc1nc(-c2cccc(Cl)c2)c2c(n1)-c1ccccc1OC2` here?
Its survival is inactive: 61%.

How did the survival turn out when `COc1ccc(NC(=O)Cn2cc(S(=O)(=O)c3ccc(C)cc3)c(=O)c3ccccc32)cc1OC` was run?
The survival was inactive: 62%.

Which survival does the source give for `COc1ccc(-c2noc(-c3ccc(NCc4ccco4)c([N+](=O)[O-])c3)n2)cc1` here?
Its survival is inactive: 43%.

For `CCOC(=O)c1cccc(NC(=O)CCc2c(C)nc3cc(-c4ccc(Cl)cc4)nn3c2C)c1`, which survival is on record?
The survival was active: 35%.

Which survival does the source give for `CCc1nnc(SCC(=O)N(C)c2ccccc2)c2cc3sccc3n12` here?
Its survival is inactive: 74%.

For `O=C(CCCn1c(=O)c2cccn2c2ccc(F)cc21)NCCc1ccccc1`, which survival is on record?
Its survival is active: 47%.

`CCOC(=O)CSc1nc2ccc(NC(=O)c3ccc(F)cc3)cc2s1` was tested. Which survival did it give?
The survival was inactive: 84%.

For `Cc1ccc(Cl)cc1NC(=O)Nc1c(C)n(C)n(-c2ccccc2)c1=O`, which survival is on record?
Its survival is inactive: 128%.

Which survival does the source give for `Cc1csc(NC(=O)c2c(O)c3cccc4c3n(c2=O)CCC4)n1` here?
Its survival is inactive: 88%.

How did the survival turn out when `COc1ccc(N/C=C\C(=O)c2ccc3c(c2)OCO3)cc1` was run?
Its survival is inactive: 92%.

`NN(CCC(=O)N1CCCCC1)C1=NS(=O)(=O)c2ccccc21` was tested. Which survival did it give?
Its survival is inactive: 92%.

With `O=C1COc2ccccc2N1Cc1ccc(OC(F)(F)F)cc1` as the compound, how does the survival read?
Its survival is inactive: 86%.

`Cc1ccc([C@H]2Nc3ccc(S(=O)(=O)Nc4cccc(Cl)c4C)cc3[C@H]3C=CC[C@H]32)cc1` was tested. Which survival did it give?
Its survival is inactive: 50%.

For `CCn1cc(CCC(=O)NCc2ccc(F)cc2)c2ccccc21`, which survival is on record?
The survival was inactive: 66%.

For `S=c1nc(Cc2cccs2)[nH]c2ccccc12`, which survival is on record?
Its survival is inactive: 100%.

Which survival does the source give for `Cc1ccc(Nc2nnc(-c3ccc(C)c(S(=O)(=O)N4CCN(C)CC4)c3)c3ccccc23)c(C)c1` here?
The survival was inactive: 90%.

For `CCCCNS(=O)(=O)c1ccc(N)cc1`, which survival is on record?
Its survival is inactive: 55%.

With `Cc1cc(C)c(Cn2c(CCNC(=O)c3ccco3)nc3ccccc32)c(C)c1` as the compound, how does the survival read?
Its survival is inactive: 59%.

`CCCn1c(=O)n(-c2cc(Cl)c(OC)cc2OC)c(=O)c2c3c(sc21)CN(C(C)=O)CC3` was tested. Which survival did it give?
The survival was inactive: 62%.

Which survival does the source give for `COc1ccc(C(=O)Nc2cc(C(C)C)c(O)c(S(=O)(=O)c3ccc(OC)cc3)c2C)cc1` here?
The survival was inactive: 82%.

With `c1ccc(Cc2nnc(SCc3nc(-c4cccs4)no3)n2-c2ccccc2)cc1` as the compound, how does the survival read?
Its survival is inactive: 56%.

With `Cc1ccccc1N1CCN(S(=O)(=O)c2nnc(NC(=O)c3ccccc3)s2)CC1` as the compound, how does the survival read?
The survival was active: 26%.

How did the survival turn out when `CC(C)C(=O)Nc1cccc(C(=O)NCc2ccc3c(c2)OCO3)c1` was run?
The survival was inactive: 93%.

For `COc1ccc(S(=O)(=O)c2c(Nc3ccc(F)cc3)sc(C(=O)c3ccc(C)cc3C)c2N)cc1`, which survival is on record?
Its survival is inactive: 123%.

How did the survival turn out when `COc1cccc(NC(=O)c2sc3nc(C)c(C(=O)Nc4ccc(C)cc4C)c(-c4sccc4C)c3c2N)c1` was run?
The survival was inactive: 78%.

Which survival does the source give for `O=c1c2oc3ccccc3c2n(Cc2cccc(F)c2)c(=O)n1Cc1ccco1` here?
Its survival is inactive: 75%.

With `CC(C)c1ccc2oc(-c3cc(NC(=O)c4cccs4)ccc3Cl)nc2c1` as the compound, how does the survival read?
Its survival is active: 16%.

For `CCCN(C(=O)c1nn(-c2ccc(OC)c(Cl)c2)c(=O)c2c1c1ccccc1n2C)c1ccccc1F`, which survival is on record?
Its survival is inactive: 69%.

Which survival does the source give for `Cc1ccccc1C(=O)NC1CCN(CC(=O)N2CCCCC2C)CC1` (centres undefined) here?
Its survival is inactive: 91%.

How did the survival turn out when `COc1ccc(NC(=O)c2ccc3c(=O)n4nc(Nc5cc(C)ccc5C)sc4nc3c2)cc1` was run?
The survival was inactive: 116%.

How did the survival turn out when `COc1ccc(OC)c(NC(=O)Cn2cnc3sc(C)c(S(=O)(=O)N4CCN(c5ccccc5OC)CC4)c3c2=O)c1` was run?
The survival was inactive: 69%.

For `CCOc1ccccc1CNC(=O)C1CCN(C2=NS(=O)(=O)C(c3ccc(C)c(C)c3)=C2C)CC1`, which survival is on record?
Its survival is inactive: 84%.

`CC1CC(C)CN(C(=S)Nc2ccccc2)C1` (centres undefined) was tested. Which survival did it give?
The survival was inactive: 108%.

With `COc1cccc(C(C(=O)NCc2ccco2)N(C(=O)Cn2nnc3ccccc32)C2CC2)c1OC` (centres undefined) as the compound, how does the survival read?
Its survival is inactive: 107%.

With `COc1ccc(C(=O)N2CCC(c3nc4ccccc4o3)CC2)cc1` as the compound, how does the survival read?
Its survival is inactive: 75%.

`CCOc1ccc(C(=O)NCCc2csc(-c3ccc(C(F)(F)F)cc3)n2)cc1OCC` was tested. Which survival did it give?
Its survival is inactive: 100%.

With `Cc1ccc(-c2cnc(NC(=O)CCC(=O)N3CCCCC3)n2C)cc1` as the compound, how does the survival read?
Its survival is inactive: 91%.

For `Cc1cccc(-c2c3c(=O)n(C)c(=O)n(C)c3cn2-c2cc(N)c(Cl)cc2Cl)c1`, which survival is on record?
Its survival is inactive: 49%.

How did the survival turn out when `O=C(Nc1ccc(N2CCCC2)cc1)c1ccc(Br)o1` was run?
Its survival is inactive: 62%.

How did the survival turn out when `N#Cc1ccccc1CN1c2cccc3cccc(c23)S1(=O)=O` was run?
The survival was inactive: 106%.

How did the survival turn out when `CN(C)c1oc(/C=C/c2ccc(F)cc2)nc1C#N` was run?
The survival was inactive: 74%.

With `CCOC(=O)c1c(C)n(CCNC(C)=O)c2cc(Br)c(OC)cc12` as the compound, how does the survival read?
Its survival is inactive: 106%.

`CC(=O)c1ccc(NC(=O)Nc2nnc(N3CCCC(C)C3)s2)cc1` (centres undefined) was tested. Which survival did it give?
Its survival is inactive: 49%.

How did the survival turn out when `CCN(c1ccccc1)c1nnc(NC(=O)Nc2cccc(Cl)c2C)s1` was run?
The survival was inactive: 92%.

For `Nc1cc(=O)nc(SCC(=O)Nc2cccc(Cl)c2)n1CCc1ccccc1`, which survival is on record?
The survival was inactive: 76%.

Which survival does the source give for `CSc1ccc(-c2nc3ncccn3c2Nc2ccc(C)c(C)c2)cc1` here?
Its survival is inactive: 62%.

With `COc1ccc(C2=CC(c3ccccc3F)n3ncc(C(=O)Nc4ccc(C)cc4)c3N2)cc1` (centres undefined) as the compound, how does the survival read?
The survival was inactive: 107%.

Which survival does the source give for `CCC(=O)Nc1ccc(S(=O)(=O)NCc2ccc3c(c2)CCN3C(=O)c2ccc(C)cc2)cc1` here?
The survival was inactive: 94%.

For `CCN(CC)C(=O)c1sc(NC(=O)C(C)Sc2nc(-c3ccccc3)cc(C(F)(F)F)n2)c(C(=O)OC)c1C` (centres undefined), which survival is on record?
The survival was inactive: 136%.

`CC1(CCC#N)N=C(SCCC#N)N(c2ccccc2)C1=O` (centres undefined) was tested. Which survival did it give?
Its survival is inactive: 71%.

For `COc1ccccc1Cn1ccn(Cc2c(F)cccc2Cl)c(=O)c1=O`, which survival is on record?
Its survival is inactive: 110%.

Which survival does the source give for `CCc1c(C)nc(SCC(=O)N(C(C)C)C(C)C)[nH]c1=O` here?
Its survival is inactive: 81%.

Which survival does the source give for `COC(=O)c1ccccc1NC(=O)CCC(=O)N1CCOc2ccccc21` here?
The survival was inactive: 65%.

`CCOC(=O)c1c(-c2ccccc2)csc1NC(=O)c1nc(S(=O)(=O)CC)ncc1Cl` was tested. Which survival did it give?
The survival was active: 11%.

How did the survival turn out when `CC(C)(C)NS(=O)(=O)c1ccc2oc3ccc(S(=O)(=O)NC(C)(C)C)cc3c2c1` was run?
Its survival is inactive: 86%.

With `Cc1ccc(-n2cccn2)cc1` as the compound, how does the survival read?
The survival was inactive: 92%.

Which survival does the source give for `Cc1noc(/C=C/N(C)C)c1S(=O)(=O)N1CCCC(C(=O)Nc2ccc(F)cc2F)C1` (centres undefined) here?
Its survival is inactive: 86%.

How did the survival turn out when `COc1ccc(NC(=O)Nc2sc3nc4n(c(=O)c3c2C)CCC(C)CC4)cc1OC` (centres undefined) was run?
The survival was inactive: 94%.

With `Cc1c2cnn(CC(=O)NCc3ccc(F)cc3)c(=O)c2c(C)n1Cc1ccccc1F` as the compound, how does the survival read?
Its survival is inactive: 90%.

Which survival does the source give for `Cc1nc2c(C(=O)NCCc3ccccc3)cnn2c(C)c1Cc1c(F)cccc1Cl` here?
Its survival is inactive: 79%.

With `CC(C)(C)OC(=O)N1CCC(c2c(C(=O)NCc3cccs3)cnn2-c2ccc(F)cc2F)CC1` as the compound, how does the survival read?
The survival was inactive: 72%.

`COc1ccc(Cl)cc1Nc1ncnc2c1c(-c1ccccc1)cn2-c1ccccc1` was tested. Which survival did it give?
The survival was inactive: 129%.

For `CCOCCCNC(=O)c1cc2c(-c3ccc(OC)c(OC)c3)nn(C)c2s1`, which survival is on record?
The survival was inactive: 89%.

Which survival does the source give for `COCCN1CCc2nc(SCC(=O)Nc3ccc(Br)cc3)[nH]c(=O)c2C1` here?
The survival was inactive: 79%.

Which survival does the source give for `N#CC(Cc1cccs1)c1nc2ccccc2[nH]1` (centres undefined) here?
The survival was inactive: 105%.

With `Cc1ccc(CNS(=O)(=O)c2cc(C(=O)Nc3cccc(C(F)(F)F)c3)ccc2F)cc1` as the compound, how does the survival read?
The survival was inactive: 87%.

For `COc1ccc(S(=O)(=O)N2Cc3ccccc3CC2C(=O)N2CCOCC2)cc1OC` (centres undefined), which survival is on record?
The survival was inactive: 87%.
